# Reference: article PMC6919601, “Identification of Plasmodium dipeptidyl aminopeptidase allosteric inhibitors by high throughput screening” (PLoS ONE, 2019)
# Several values for one entry are separate records, joined by “and”; a condition that tells them apart may be missing. Equal entries are not always repeated. Out of some 110,000 compounds screened, about 230 (0.21%) showed an effect of 50% or more. The list shows a part of the results.
# Molecular target: DPAP1 (Plasmodium falciparum, UniProt Q8IIJ9)
# Sequence (Q8IIJ9 whole entry, looked up): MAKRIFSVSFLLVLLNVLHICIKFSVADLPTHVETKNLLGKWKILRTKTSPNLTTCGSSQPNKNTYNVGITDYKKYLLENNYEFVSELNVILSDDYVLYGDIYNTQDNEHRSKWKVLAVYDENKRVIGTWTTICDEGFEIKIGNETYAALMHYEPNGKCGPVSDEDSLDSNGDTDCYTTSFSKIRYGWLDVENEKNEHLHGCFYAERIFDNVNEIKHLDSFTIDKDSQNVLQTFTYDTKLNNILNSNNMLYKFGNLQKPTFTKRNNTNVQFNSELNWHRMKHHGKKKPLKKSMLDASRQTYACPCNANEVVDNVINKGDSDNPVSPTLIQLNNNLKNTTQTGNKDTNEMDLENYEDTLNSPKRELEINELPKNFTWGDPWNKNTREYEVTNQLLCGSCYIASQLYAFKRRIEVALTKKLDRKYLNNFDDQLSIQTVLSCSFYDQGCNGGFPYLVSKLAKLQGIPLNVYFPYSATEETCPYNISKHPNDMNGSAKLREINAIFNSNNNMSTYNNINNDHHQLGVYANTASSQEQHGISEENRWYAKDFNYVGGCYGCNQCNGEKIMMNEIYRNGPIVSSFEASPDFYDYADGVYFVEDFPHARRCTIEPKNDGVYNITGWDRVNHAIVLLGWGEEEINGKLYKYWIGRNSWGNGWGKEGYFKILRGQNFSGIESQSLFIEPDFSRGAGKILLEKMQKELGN
# Assay: primary screen, percent inhibition; read by cleavage of a fluorogenic dipeptide substrate; higher = more effect of the substance
# Set-up: species or system P. falciparum D10 trophozoite lysates; single well
# 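Further: 30 min substrate incubation versus DMSO and 10 µM JCP410 controls.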
row,SMILES,% Inhibition @ 10 uM
1,COc1ccc(NC(=O)CN(Cc2ccc(Cl)c(Cl)c2)S(=O)(=O)c2ccccc2)cc1,4.25%
2,COc1ccccc1OCC(=O)N(Cc1nc(-c2cccc(C)c2)no1)C1CCCCC1,3.74%
3,Cc1ccccc1CCNC(=O)Cn1ccc2cc(S(=O)(=O)N3CCCC3)ccc21,22.8%
4,CCOc1ccc(Nc2nc(C)cc(C)c2C(N)=O)cc1,-7%
5,Cc1cccc(S(=O)(=O)Nc2cccc(-c3cn4ccsc4n3)c2)c1,-0.413%
6,COc1ccc(N2C(=O)/C(=C\c3ccccc3OC)N=C2c2ccccc2)cc1,6.82%
7,CNC(=S)N(CCc1c(C)[nH]c2ccc(Cl)cc12)Cc1ccccn1,-4.14%
8,Cc1ccc(S(=O)(=O)Cc2ccc(C(=O)NC3CCCC3)o2)cc1,-1.28%
9,CC1CCCC(NC(=O)CCCN2C(=O)CSc3ncccc32)C1C (stereo not shown),-4.15%
10,O=C(Nc1ccc(Br)c2cccnc12)c1ccc(Cn2cc(Cl)cn2)cc1,-1.64%
11,CC(C)(CO)Nc1nc(N2CCOCC2)nc(N2CCOCC2)n1,2.56%
12,CCC(C)N(Cc1ccc(F)cc1)S(=O)(=O)c1ccc(S(=O)(=O)NC2CCCC2)cc1 (stereo not shown),-1.31%
13,CC(C)c1c(C#N)c(N)nc(SCC(=O)c2cc3ccccc3oc2=O)c1C#N,8.38%
14,Cc1nc2nc(NC(=O)C(C)(C)C)nn2c(O)c1C,5.2%
15,O=C(CSc1c2c(nc3ccccc13)CCCC2)N1CCN(c2ccccn2)CC1,-5.34%
16,O=C1C2CC=CCC2C(=O)N1c1ccc(Cl)cc1 (stereo not shown),6.14%
17,Cc1ccc(-c2noc(CNC(=O)c3cc(C)cc(C)c3)n2)cc1,-1.22%
18,CCc1ccc(OCC(=O)NCc2ccccc2)cc1,-3.09%
19,Clc1ccccc1CSc1nc2ccccc2[nH]1,6.06%
20,COc1cccc(CSc2nc3nccnc3c(=O)n2CCc2c[nH]c3ccccc23)c1,-1.26%
21,COc1cccc(NC(=O)CN(c2cc(C)ccc2C)S(=O)(=O)c2ccccc2)c1,-1.55% and 2.08%
22,CCCN1CCN(S(=O)(=O)c2ccc(-n3cnnn3)cc2)CC1,2.29%
23,Cc1ccsc1/C=C1\SC(=O)N(C)C1=O,3.79%
24,COc1ccccc1CC(C)NCC(C)(C)CN(C)C (stereo not shown),-3.6%
25,CCNC(=S)N(CCc1c(C)[nH]c2ccc(C)cc12)Cc1ccccn1,-2.29%

row,SMILES,% Inhibition @ 10 uM
1,Cc1ccc2c(=O)cc(C(=O)NCc3ccncc3)oc2c1C,1.7%
2,COCCN(Cc1ccco1)C(=O)Cn1ncc2c(=O)oc3ccc(C)cc3c21,-1.7%
3,Cc1ccc(C)c(OCC(=O)Nc2ncccn2)c1,0.795%
4,COc1cc(NC(C)=O)ccc1NC(=O)c1ccco1,-7.76%
5,CCOC(=O)N1CCN(C2=NS(=O)(=O)C(c3ccc(F)cc3)=C2C)CC1,-2.07%
6,CCOC(=O)/C(C#N)=C(/C)c1ccc(OC)cc1,1.54%
7,O=S(=O)(c1ccccc1)c1nnn2c1nc(NCc1ccccc1Cl)c1sccc12,-0.538%
8,OC(COc1ccc(OCC(O)CN2CCCC2)cc1)CN1CCCC1 (stereo not shown),5.09%
9,O=C(N/C(=C/c1ccccc1)P(=O)(O)c1ccccc1)c1ccccc1,2.7%
10,CCOCCCNC(=O)CCCn1c2ccccc2c2cnnc(O)c21,-0.281%
11,CSc1ccc(Cn2nnc(C(=O)NCc3ccc(C)cc3)c2N)cc1,2.93%
12,COc1ccc(-c2ccc3c(N)c(C(=O)Nc4ccc(F)cc4)sc3n2)cc1OC,-1.6%
13,O=C(N/C(=C\c1ccc2c(c1)OCO2)C(=O)N1CCOCC1)c1ccco1,0.587%
14,O=C1c2n[nH]c(-c3ccccc3O)c2C(c2cccc(Oc3ccccc3)c2)N1CC1CCCO1 (stereo not shown),-1.35%
15,CC1CCCC(N2CCCC(C(N)=O)C2)C1 (stereo not shown),-4.75%
16,O=C1OC2(CCCCC2)OC(=O)C1=Cc1ccc(-c2ccc(Cl)c(C(=O)O)c2)o1,0.146%
17,C=Cc1ccc(Cn2c(C(=O)O)c(CNCc3ccc(OC)cc3OC)c3ccc(C)cc32)cc1,5.12%
18,CC(C)COC(=O)Nc1nn2c(-c3ccccc3)nnc2s1,-6.65%
19,O=C(NCc1ccc2c(c1)OCO2)c1c(Cl)cccc1Cl,0.145%
20,COC(=O)c1ccc(-c2ccco2)n1CC(=O)N1CCc2ccccc2C1,4.51%
21,CC/N=C1\S/C(=C\c2cc(Cl)c(OC)c(OC)c2)C(=O)N1CC,-4.97%
22,CCn1c(SCC(=O)NCCc2ccccc2)nc2c(c1=O)SCC2,-1%
23,O=[N+]([O-])c1ccc(Cl)c2cccnc12,-7.35%
24,COc1ccccc1OCc1nc(C#N)c(N2CC(C)CC(C)C2)o1 (stereo not shown),-0.958%
25,Cc1sc2c(c1C)CSC(C(=O)NCc1ccccn1)=C2,16.6%

row,SMILES,% Inhibition @ 10 uM
1,Cc1ccc2c(c1)Cc1c(O)nc(-c3ccc(O)cc3)nc1O2,0.655%
2,Cc1ccsc1-c1nc(CSCC(=O)O)c(C)o1,1.42%
3,CN(C(=O)Cn1nc(Cc2cccnc2)c2ccccc2c1=O)C1CCCCC1,-2.92%
4,CC(C)(C)c1ccc(-c2cc(N)n(S(=O)(=O)c3ccccc3)n2)cc1,1.15%
5,O=C(NC(c1ccccc1)c1c(O)ccc2ccccc12)c1ccc(Br)cc1 (stereo not shown),-4.08%
6,Cc1cc(Cl)ccc1OCC(=O)Nc1ccc(S(=O)(=O)N2CCC(C)CC2)cc1,-1.65%
7,O=S(=O)(c1ccc(Cc2ccc(S(=O)(=O)N3CCCCC3)cc2)cc1)N1CCCCC1,3.25%
8,CCOC(=O)c1c(NC(=O)CCCCCN2C(=O)c3ccccc3C2=O)sc2c1CCCC2,-4.77%
9,CC(C)=C1C(=O)NN(c2ccccc2)C1=O,-3.27%
10,Cc1sc(NC(=O)COc2ccccc2)nc1-c1ccccc1,4.37%
11,Cc1ccc(S(=O)(=O)c2nc(S(C)(=O)=O)sc2N2CCOCC2)cc1,-4.04%
12,COc1cc(/C=C2\SC(=N)N(c3ccc(Br)cc3)C2=O)ccc1O,2.95%
13,N#CCNC(=O)C1(NC(=O)CCc2ccccc2)CCCCC1,0.079%
14,NC(=O)C1CCCc2c1[nH]c1ccccc21 (stereo not shown),0.486%
15,Cc1csc(NC(=O)CN(Cc2ccccc2)S(=O)(=O)c2ccc3nc(C)sc3c2)n1,-6.31%
16,CC12C(=O)N(c3cccc(Cl)c3Cl)C(=O)C1C1C=CC2C1 (stereo not shown),-5.15%
17,CCS(=O)(=O)c1nc(S(=O)(=O)c2ccc(C)cc2)c(NCCOC)s1,-2.25%
18,Cc1ccc(CS(=O)(=O)Cc2ccc(C(=O)NCc3cccnc3)o2)cc1,3.79%
19,O=C(CCCCCN1C(=O)c2cccc3cccc(c23)C1=O)N1CCOCC1,-6.11%
20,Cc1cc(-c2ccc(C)c(S(=O)(=O)N(CC(C)C)CC(C)C)c2)on1,-4.9%
21,COc1ccc(-n2cc(-c3ccccc3)c3c(N4CCN(CCO)CC4)ncnc32)cc1,7.04%
22,CCC(C)Oc1ccc(C=C2C(=O)c3ccccc3C2=O)cc1OC (stereo not shown),-5.15%
23,Cn1cc(C(=O)Nc2ccccc2C(C)(C)C)cn1,-5.85%
24,O=C(NCCc1ccccc1)C1CCN(S(=O)(=O)c2ccc(Br)s2)CC1,-6.57%
25,Cc1nn(CC(=O)NCc2ccco2)c2ccccc12,0.596%

row,SMILES,% Inhibition @ 10 uM
1,CC1CCc2c(sc3ncnc(N4CCN(CCO)CC4)c23)C1 (stereo not shown),-0.85%
2,CC(C)c1nn2cc(-c3cccc(Br)c3)nc2s1,-4.54%
3,COc1ccc(C(=O)N2CCOCC2)c(OC)c1,4.49%
4,O=C(Cn1ccc2cc(S(=O)(=O)N3CCCC3)ccc21)NCCc1ccccc1Cl,-0.899%
5,CN1CCN(CCCC(=O)c2ccc(C3CCCC3)cc2)CC1,-9.7%
6,Cc1cccc2sc(N(CCCN(C)C)C(=O)c3ccccc3Cl)nc12,4.44%
7,CC1CC(C)CN(c2ncnc3scc(-c4ccccc4)c23)C1 (stereo not shown),3.45%
8,COc1cc(CN2CCN(Cc3ccc(C)cc3)CC2)cc(OC)c1OC,-0.795%
9,COc1cccc(C2=CC(c3cccc(F)c3)n3nnnc3N2)c1 (stereo not shown),-1.62%
10,CCOc1cc(-c2nc(C)c(C(C)=O)n2O)ccc1OCC(=O)Nc1cccc(C(F)(F)F)c1,3.99%
11,O=c1oc2ccccc2cc1-c1nc(-c2ccc(Cl)cc2)cs1,-0.975%
12,Cc1cccc(NC(=O)c2ccccc2NC(=O)C2CCCCC2C(=O)O)c1 (stereo not shown),-2.76%
13,O=C(O)C1CCCN(c2ncnc3onc(-c4ccc(Cl)cc4)c23)C1 (stereo not shown),-3.95%
14,CC(C)c1ccc(C=C2C(=O)NC(=O)NC2=O)cc1,4.66%
15,Nc1cc(O)nc(SCC(=O)Nc2nccs2)n1,0.569%
16,COc1cccc(CN2C(=O)c3ccc(C)cc3C2=O)c1,3.53%
17,Cc1cc(C)cc(OCc2nc3cc(Br)cnc3[nH]2)c1,-4.26%
18,CCOC(=O)N1CCN(C(=O)C2CCN(S(=O)(=O)c3ccc(Br)s3)CC2)CC1,-3.87%
19,CCCS(=O)(=O)N1CCCC(C(=O)N2CCCCC2)C1 (stereo not shown),-1.79%
20,COc1ccc(-c2csc(N)c2C(=O)OC(C)C)cc1OC,-3.92%
21,C=Cc1ccc(Cn2c(C(=O)O)c(CNCCc3c[nH]c4ccccc34)c3ccccc32)cc1,0.277%
22,CC(C)CN1C(=O)c2cccc3cc(Br)cc(c23)C1=O,-3.45%
23,O=c1oc2ccccc2cc1-c1csc(-c2nc(-c3cc4ccccc4oc3=O)cs2)n1,3.48%
24,CCN(CC)CCNc1nc2c(c(=O)[nH]c(=O)n2C)n1CC(O)COc1cccc(C)c1 (stereo not shown),-2.91%
25,Cc1cc(=O)oc2c(CN3CCOCC3)c(O)ccc12,1.13%
